{"source": "PubChem BioAssay AID686978", "about": "(National Center for Advancing Translational Sciences (NCATS), 2013)", "note": "Out of some 420,000 compounds screened, about 64,000 (15%) were called active. The shares of active, inactive and inconclusive entries below differ from those in the screen. The call rests on the fitted dose curve; in most records, active means well fitted inhibition curve with a large enough effect; inconclusive means small, poorly fitted or top-dose-only effect; inactive means flat fitted curve, though single readings scatter. Potencies of inconclusive entries are left out as doubtful fits. On the % scale 0 is the no-effect control and ±100 the full control effect; potency means the concentration at half of the fitted maximal effect; tags describe the fitted curve by direction and shape.", "data": [{"assay": "qHTS for Inhibitors of human tyrosyl-DNA phosphodiesterase 1 (TDP1): qHTS in cells in absence of CPT; further: nearly all actives have a fitted effect of over 55% in size", "conditions": "DT40 Tdp1-/- hTDP1 cells, no CPT, ATP luminescence, 48 h; activity change, negative = growth inhibition: at 46.2 µM (top of the series) unless noted", "procedure,_shortened": "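A cellular qHTS used chicken DT40 cells lacking endogenous Tdp1 but carrying stably transfected human TDP1. Compounds were applied without camptothecin, and cell growth kinetics were judged by ATP-dependent luminescence after ≥48 hr.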", "values": [{"compound": "CCCOc1ccc(-c2nonc2NC(=O)c2oc3ccc(C)cc3c2C)cc1OCCC", "Potency": "inconclusive [inhibitor, partial curve]"}, {"compound": "CCOc1ccc2nc(NC(=O)CC3Oc4ccccc4NC3=O)sc2c1", "note": "(centres undefined)", "Potency": "inconclusive [inhibitor, partial curve]"}, {"compound": "COc1cc(OC)cc(C(=O)NCC(=O)NC(C)c2ccccc2)c1", "note": "(centres undefined)", "activity change, negative = growth inhibition": "inactive: -0.301%"}, {"compound": "O=C(Nc1ccccc1Cl)c1cccs1", "activity change, negative = growth inhibition": "inactive: -6.51%"}, {"compound": "Cc1cccc(NC(=O)c2c(F)c(F)c(F)c(F)c2F)c1", "activity change, negative = growth inhibition": "inactive: 17.6%"}, {"compound": "Cc1ccccc1C(=O)Nc1ccc2c(c1)OCO2", "activity change, negative = growth inhibition": "inconclusive: -33.9% [inhibitor]"}, {"compound": "COc1ccc(CCNc2nc(C)nc3c2nnn3Cc2ccccc2)cc1OC", "Potency": "inconclusive [inhibitor, single point]"}, {"compound": "COc1c(OC)c2[nH]c(=O)cc3c4ccccc4n(c1=O)c23", "Potency": "inconclusive [inhibitor, single point]"}, {"compound": "CC(=O)Nc1sc2c(c1C(c1ccc(Cl)cc1)N1CCOCC1)CCCC2", "note": "(centres undefined)", "Potency": "inconclusive [inhibitor, single point]"}, {"compound": "CCCCc1nc(N2CCN(C(=O)c3ccco3)CC2)c(C#N)c2c1CCCC2", "Potency": "inconclusive [inhibitor, single point]"}, {"compound": "CN1CCN(c2nc3c(S(=O)(=O)c4ccc(Br)cc4)nnn3c3ccsc23)CC1", "Potency": "inconclusive [inhibitor, single point]"}, {"compound": "CCOC(=O)C1CCN(C/C=C/c2ccccc2OC)CC1", "activity change, negative = growth inhibition": "inactive: -12.7%"}, {"compound": "CC1CCCC(C)N1C(=O)COC(=O)Cc1ccc(Cl)cc1", "note": "(centres undefined)", "activity change, negative = growth inhibition": "inactive: 6.01%"}, {"compound": "O=C(Cn1cncn1)NCCCc1ccccc1", "Potency": "inconclusive [inhibitor, single point]"}, {"compound": "Oc1ccc(Cl)cc1C1=Nc2ccccc2N=C(c2cccc(Br)c2)C1", "Potency": "inconclusive [inhibitor, partial curve]"}, {"compound": "Cc1ccc(C)c2c1NC(C(=O)O)C1CC=CC21", "note": "(centres undefined)", "Potency": "inconclusive [inhibitor, single point]"}, {"compound": "CN(C)c1ccc(-c2ccnc3c2CC(C)(C(=O)NCc2ccncc2)O3)cc1", "note": "(centres undefined)", "Potency": "inconclusive [inhibitor, partial curve]"}, {"compound": "CSC1=C(C#N)C(c2ccc(Cl)cc2)C2=C(CC(C)(C)CC2=O)N1", "note": "(centres undefined)", "Potency": "active: 0.92 µM"}, {"compound": "CC1(C(=O)NCc2ccccc2)CN(S(C)(=O)=O)CC(=O)N1Cc1ccc2c(c1)OCO2", "note": "(centres undefined)", "activity change, negative = growth inhibition": "inactive: -6.61%"}, {"compound": "Cc1ccccc1C(c1ccccc1Cl)N(C)C", "note": "(centres undefined)", "Potency": "inconclusive [inhibitor, single point]"}, {"compound": "Cc1cccc(NC(=S)NN2CCOCC2)c1C", "activity change, negative = growth inhibition": "inactive: 7.91%"}, {"compound": "CCCNC(=O)c1ccc(N2CCC3(CC2)CC(c2cccc(Br)c2)=NO3)c(N)c1", "Potency": "inconclusive [inhibitor, single point]"}, {"compound": "Cn1c(=O)n(C/C=C/c2ccccc2)c(=O)c2c1nc1n2CCCN1c1ccc(F)cc1", "Potency": "inconclusive [inhibitor, partial curve]"}, {"compound": "Cc1sc2ncnc(Nc3ccc(O)cc3)c2c1C", "Potency": "inconclusive [inhibitor, full curve, poor fit]"}, {"compound": "N#Cc1ccc(C23CC4(C2)[C@H](CN(Cc2ccc(-c5ccccc5)cc2)[C@@H]4c2ccccc2)C3c2ccc(C(F)(F)F)cc2)cc1", "note": "(some centres undefined)", "Potency": "inconclusive [inhibitor, single point]"}, {"compound": "Cc1ccc2[nH]c(=O)c(C(c3nnnn3CC3CCCO3)N3CCc4ccccc4C3)cc2c1", "note": "(centres undefined)", "Potency": "inconclusive [inhibitor, single point]"}, {"compound": "CNS(=O)(=O)c1cccc(C(=O)OCC(=O)c2c(N)n(Cc3ccccc3)c(=O)n(C)c2=O)c1", "Potency": "inconclusive [inhibitor, single point]"}, {"compound": "CCOC(=O)c1c(-c2ccc(F)cc2)csc1NC(=O)C1CCCO1", "note": "(centres undefined)", "Potency": "inconclusive [inhibitor, single point]"}, {"compound": "Cc1ccc(NC(=O)C(=O)NCC(c2cccnc2)N2CCN(C)CC2)cc1F", "note": "(centres undefined)", "activity change, negative = growth inhibition": "inactive: -22.9%"}, {"compound": "Cc1ccc(S(=O)(=O)Nc2ccc(-c3nnc(SCc4ccccc4Cl)o3)cc2)cc1", "Potency": "inconclusive [inhibitor, single point]"}, {"compound": "CC(C)C(=O)N1CCN(S(=O)(=O)c2ccc3ccccc3c2)CC1", "Potency": "inconclusive [inhibitor, partial curve, poor fit]"}, {"compound": "COc1ccc(C(C#N)=C2C=C(Cl)C(=NO)C=C2Cl)cc1", "Potency": "active: 2.59 µM"}, {"compound": "Cn1c(=NN=Cc2ccccc2OCCO)sc2ccccc21", "Potency": "inconclusive [inhibitor, single point]"}, {"compound": "CCOC(=O)C1(C)CCCN1C(=O)c1ccc2ccccc2c1", "note": "(centres undefined)", "Potency": "active: 18.4 µM"}, {"compound": "COC(=O)CCc1c(C)[nH]c(C(=O)OCc2ccccc2)c1C", "activity change, negative = growth inhibition": "inactive: -6.34%"}, {"compound": "CCC(CC)c1nnc(NC(=O)CCc2ccccc2OC)s1", "activity change, negative = growth inhibition": "inactive: -15.7%"}, {"compound": "O=C(c1cc(C(F)(F)F)cc(C(F)(F)F)c1)N1CCC2(CCCN(Cc3ccccc3)C2)CC1", "activity change, negative = growth inhibition": "inactive: -19.7%"}, {"compound": "CC1=CC(C)(C)N2C(=O)C3(C(C#N)=C(N)OC4=C3C(=O)CCC4)c3c(C)c(C)cc1c32", "note": "(centres undefined)", "Potency": "inconclusive [inhibitor, single point]"}, {"compound": "CCOC(=O)c1sc(=S)n(-c2ccc(OC)cc2)c1N", "Potency": "inconclusive [inhibitor, single point]"}, {"compound": "N#C/C(=C\\c1cn(-c2ccccc2)nc1-c1cccnc1)c1nnc2n1CCCCC2", "Potency": "inconclusive [inhibitor, partial curve]"}, {"compound": "Cc1ccnc(NC(=O)c2cccc(NC(=O)Cc3ccccc3)c2)c1", "activity change, negative = growth inhibition": "inactive: -12.4%"}, {"compound": "COC(=O)[C@]12CCCCC=C1N(Cc1ccc3c(c1)OCO3)C(=O)[C@H](CC(=O)N1CCN(C(=O)c3ccco3)CC1)C2", "Potency": "inconclusive [inhibitor, single point]"}, {"compound": "COc1ccc(-c2cc(C(F)(F)F)nc(SCC(=O)NCc3cnn(C)c3C)n2)cc1OC", "activity change, negative = growth inhibition": "inactive: -3.17%"}, {"compound": "c1ccc(Cn2c(NCc3ccco3)nc3ccccc32)cc1", "Potency": "active: 18.4 µM"}, {"compound": "COc1ccc(/C=C2\\CCCC3C2=NN(C(=O)c2ccco2)C3c2ccc(OC)c(OC)c2)cc1OC", "note": "(centres undefined)", "Potency": "inconclusive [inhibitor, single point]"}, {"compound": "COc1cccc(C(=O)Nc2ccc3c(cc2=O)[C@@H](NC(C)=O)CCc2cc(OC)c(OC)c(OC)c2-3)c1", "Potency": "active: 2.91 µM"}, {"compound": "CC1C=CCC2C(=O)N(c3cccc(C(=O)NCc4ccccc4)c3)C(=O)C12", "note": "(centres undefined)", "activity change, negative = growth inhibition": "inactive: 5.27%"}, {"compound": "COc1ccc(NC(=O)CCC(=O)c2cccs2)cc1S(=O)(=O)Nc1ccc(Cl)cc1", "activity change, negative = growth inhibition": "inactive: -0.0839%"}, {"compound": "COc1cccc(C(=O)Nc2ccc(-c3cn4cccnc4n3)cc2)c1OC", "Potency": "inconclusive [inhibitor, single point]"}, {"compound": "Cc1ccc(C)n1-c1nnc(N2CCC(C(=O)N3CCN(C)CC3)CC2)s1", "Potency": "inconclusive [inhibitor, single point]"}, {"compound": "COc1ccc(/C=C2/SC(=S)N(c3ccc(S(=O)(=O)Nc4nccs4)cc3)C2=O)cc1", "Potency": "inconclusive [inhibitor, partial curve, poor fit]"}, {"compound": "CCc1ccc(C(O)c2ncc(-c3ccccc3C(F)(F)F)[nH]2)cc1", "note": "(centres undefined)", "Potency": "inconclusive [inhibitor, single point]"}, {"compound": "O=C(CN1CCN(Cc2ccccc2)CC1)N/N=C/c1c[nH]c2ccccc12", "Potency": "inconclusive [inhibitor, full curve, poor fit]"}, {"compound": "CCOc1cc(N2CCOCC2)c(OCC)cc1NC(=O)c1ccc(OC)c(S(=O)(=O)N2CCOCC2)c1", "Potency": "inconclusive [inhibitor, single point]"}, {"compound": "C#CCn1c(S(=O)(=O)Cc2ccc(F)cc2)nc(-c2ccccc2)c1-c1ccccc1", "Potency": "active: 10.3 µM"}, {"compound": "O=c1[nH][nH]cc1C=Nc1ccccc1O", "Potency": "inconclusive [inhibitor, single point]"}, {"compound": "CCC1(c2ccccc2)NC(=O)N(CC(=O)Nc2ccc(Cl)c(S(=O)(=O)N3CCCCC3)c2)C1=O", "note": "(centres undefined)", "Potency": "inconclusive [inhibitor, single point]"}, {"compound": "CCOc1cc(NS(C)(=O)=O)c(OCC)cc1NC(=O)c1cccs1", "Potency": "inconclusive [inhibitor, single point]"}, {"compound": "CN1CCC(N(C)S(=O)(=O)c2ccc(C(C)(C)C)cc2)CC1", "Potency": "inconclusive [inhibitor, single point]"}, {"compound": "COc1cc2ccccc2cc1C(=O)Nc1ccc(Cl)c(-c2nc3ccccc3o2)c1", "Potency": "active: 23.1 µM"}, {"compound": "CS(=O)(=O)n1nc(OC(=O)c2cccc3ccccc23)cc1N", "activity change, negative = growth inhibition": "inactive: -17.4%"}, {"compound": "Cc1cccn2c(=O)c3cc(S(=O)(=O)c4ccccc4)c(=N)n(Cc4cccnc4)c3nc12", "Potency": "active: 23.1 µM"}, {"compound": "CCOC(=O)Cc1ccc(NS(=O)(=O)c2ccc(SC)cc2)cc1", "Potency": "inconclusive [inhibitor, partial curve]"}, {"compound": "O=C(NCc1ccc2c(c1)OCO2)c1cc2c(s1)CS(=O)(=O)C2", "activity change, negative = growth inhibition": "inconclusive: -33.1% [inhibitor]"}, {"compound": "O=[N+]([O-])c1cc2cccnc2c2ncccc12", "Potency": "inconclusive [inhibitor, single point]"}, {"compound": "COC(=O)c1ccc(CNC(=O)CSc2nnc(COc3ccccc3)n2C)o1", "activity change, negative = growth inhibition": "inactive: -1.91%"}, {"compound": "CC(=O)N1CCc2cc(S(=O)(=O)Nc3ccc(C)cc3)ccc21", "Potency": "inconclusive [inhibitor, partial curve]"}, {"compound": "Cc1ccc(N(C(=O)c2snc(C(N)=O)c2N)C(C(=O)NCCC(C)C)c2ccco2)cc1", "note": "(centres undefined)", "Potency": "inconclusive [inhibitor, single point]"}, {"compound": "CCN1C(=O)[C@H]2[C@@H](c3ccc(C)cc3)N3C(=O)N(c4ccc(OC)cc4)C(=O)[C@@]3(Cc3ccc(Cl)cc3)[C@H]2C1=O", "activity change, negative = growth inhibition": "inactive: -24.9%"}]}]}
